Laboratory results published in the supplement of paper PMC3334620.
Over roughly 33,000 sequences, “E-score (-0.5 to 0.5)” has its median near -0.016; the highest 2% begin near 0.31. Some of the results follow.

Each sequence was assayed against Cst6 (UniProt P40535) (assay: PBM E-score (8-mer binding enrichment) (E-score (-0.5 to 0.5)); higher = stronger / more preferred TF binding; most listed sequences are background and not binding sites). Settings: protein concentration: 200 nM; construct: GST-DNA-binding domain.
Procedure, shortened: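 GST-tagged yeast TFs (full-length or DNA-binding domain) were made by PURExpress in vitro transcription/translation and applied at about 100-200 nM to universal all-10-mer Agilent arrays. The arrays were made double-stranded by primer extension, on fresh or once-stripped slides. Bound protein was detected with fluorescent anti-GST, and scans were normalised with masliner. Each ungapped eight-base word, pooled with its reverse complement, received an E-score (modified Wilcoxon-Mann-Whitney statistic) from the Universal PBM Analysis Suite.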
CAGAAAAA was tested, and the “PBM E-score” value was 0.106.
In the case of CGGGTTTA, the “PBM E-score” value is reported as 0.0511.
For AGCGGGGA, the “PBM E-score” value was -0.135.
With ACACCGCT the “PBM E-score” value was -0.255.
With CATTCTAG the “PBM E-score” value was -0.032.
In the case of ATCTCGAG, the “PBM E-score” value is reported as -0.054.
GGGCTAAA was tested, and the “PBM E-score” value was -0.0976.
With GCTAGGAA the “PBM E-score” value was -0.177.
With CCTACGCG the “PBM E-score” value was -0.155.
AGTGCTCG was tested, and the “PBM E-score” value was -0.136.
For CCAACAGA, the “PBM E-score” value was -0.0906.
For AGAGGCAA, the “PBM E-score” value was -0.0175.
GAGCAATC was tested, and the “PBM E-score” value was -0.0982.
For GGAGGCCA, the “PBM E-score” value was -0.314.
With ACCTTCTA the “PBM E-score” value was -0.0342.
For GCCCCATA, the “PBM E-score” value was -0.143.
For ACACGTAC, the “PBM E-score” value was -0.0236.
CAACGGTC was tested, and the “PBM E-score” value was -0.132.
With AGAGGCGA the “PBM E-score” value was -0.00133.
AATTTAAA was tested, and the “PBM E-score” value was 0.223.
For GCTTGGAA, the “PBM E-score” value was -0.0522.
AGGTAATG was tested, and the “PBM E-score” value was 0.101.
With GGACCTAC the “PBM E-score” value was -0.243.
CACAGAGG was tested, and the “PBM E-score” value was -0.187.
ACACTTCG was tested, and the “PBM E-score” value was 0.171.
CCTGGCCG was tested, and the “PBM E-score” value was -0.262.
In the case of AAATTTCT, the “PBM E-score” value is reported as 0.0445.
With CCTATGCA the “PBM E-score” value was -0.0716.
With CTCGTGAC the “PBM E-score” value was 0.299.
ACGACCAA was tested, and the “PBM E-score” value was 0.0474.
With GTCTATCA the “PBM E-score” value was -0.0111.
For CCGGGGAC, the “PBM E-score” value was -0.385.
In the case of ACAGGAAA, the “PBM E-score” value is reported as 0.15.
For ACCTCGAA, the “PBM E-score” value was -0.0292.
For ACATGATA, the “PBM E-score” value was 0.255.
With ATTAGCCA the “PBM E-score” value was -0.0351.
For ACATTACC, the “PBM E-score” value was 0.153.
With ACGTAGCC the “PBM E-score” value was -0.0377.
With ATTTAAGA the “PBM E-score” value was 0.0665.
For GGGCTTAC, the “PBM E-score” value was -0.0179.
In the case of AAGGTGTG, the “PBM E-score” value is reported as -0.0231.
For CCCCTCAA, the “PBM E-score” value was -0.0665.
With CTACGTCC the “PBM E-score” value was -0.0878.
With GTACCCCA the “PBM E-score” value was -0.156.
In the case of ACAGGGCT, the “PBM E-score” value is reported as -0.184.
With GTGCAGCA the “PBM E-score” value was -0.275.
In the case of CATGGGCA, the “PBM E-score” value is reported as -0.252.
AATTCACG was tested, and the “PBM E-score” value was 0.18.
In the case of CCCGTGGC, the “PBM E-score” value is reported as -0.385.
In the case of GCCACCTA, the “PBM E-score” value is reported as -0.151.
For AATCCAAA, the “PBM E-score” value was 0.0929.
GCAAGTGA was tested, and the “PBM E-score” value was 0.0628.
With TAGGACAA the “PBM E-score” value was -0.0158.
With AGGTTACA the “PBM E-score” value was 0.0162.
With GCTGTTCA the “PBM E-score” value was -0.0453.
ACAGAATA was tested, and the “PBM E-score” value was 0.079.
For GAATACAC, the “PBM E-score” value was 0.0278.
With CGCTCTAG the “PBM E-score” value was -0.325.
CAGGACGA was tested, and the “PBM E-score” value was -0.0441.
In the case of AGGTTCCC, the “PBM E-score” value is reported as -0.278.
AAACTGCA was tested, and the “PBM E-score” value was 0.0554.
For CAGTATTA, the “PBM E-score” value was 0.153.
For ACGAGAAT, the “PBM E-score” value was 0.156.
AATTGACC was tested, and the “PBM E-score” value was 0.0447.
For CGCACTAG, the “PBM E-score” value was -0.141.
In the case of CTATCCCC, the “PBM E-score” value is reported as -0.316.
With AACATCCC the “PBM E-score” value was -0.227.
With GGGACGCA the “PBM E-score” value was -0.173.
AAGTAGGG was tested, and the “PBM E-score” value was 0.037.
CAACCTAC was tested, and the “PBM E-score” value was -0.0893.
With AACTTTTC the “PBM E-score” value was 0.122.
AGGGCCGG was tested, and the “PBM E-score” value was -0.242.
AACTGGGC was tested, and the “PBM E-score” value was -0.3.
With CCCTATCA the “PBM E-score” value was -0.126.
With ACAATTGT the “PBM E-score” value was 0.0529.
In the case of ACCTATGA, the “PBM E-score” value is reported as 0.116.
In the case of AGTAACCA, the “PBM E-score” value is reported as -0.0188.
For AACCACTC, the “PBM E-score” value was -0.119.
For CGAGCGAC, the “PBM E-score” value was -0.141.
In the case of AAGCATCT, the “PBM E-score” value is reported as -0.166.
In the case of AACTAACA, the “PBM E-score” value is reported as 0.225.
In the case of AATATCCG, the “PBM E-score” value is reported as 0.177.
GTCAGTAA was tested, and the “PBM E-score” value was 0.104.
In the case of ACCGGAAG, the “PBM E-score” value is reported as 0.088.
For AGAGCTAT, the “PBM E-score” value was -0.122.
For CCTACTGC, the “PBM E-score” value was -0.051.
With CATCCCTA the “PBM E-score” value was -0.234.
For GTCTACAC, the “PBM E-score” value was -0.129.
In the case of GTCTGGGA, the “PBM E-score” value is reported as -0.281.
AAATAGAA was tested, and the “PBM E-score” value was 0.0809.
With CCCTTGGC the “PBM E-score” value was -0.364.
AAATATTC was tested, and the “PBM E-score” value was 0.221.
GGGTAACC was tested, and the “PBM E-score” value was -0.203.
CGAGTAAA was tested, and the “PBM E-score” value was 0.0647.
CATGCAGA was tested, and the “PBM E-score” value was 0.09.
AATCGTAT was tested, and the “PBM E-score” value was 0.192.
With CTAGGCTA the “PBM E-score” value was -0.304.
AGCGGCAC was tested, and the “PBM E-score” value was 0.123.
AGGTGTAG was tested, and the “PBM E-score” value was -0.248.
For CGCGTTTC, the “PBM E-score” value was -0.155.
AGCGGTGC was tested, and the “PBM E-score” value was -0.211.
GATATTAC was tested, and the “PBM E-score” value was 0.352.
With AGAACACG the “PBM E-score” value was 0.0964.
AACGCGTA was tested, and the “PBM E-score” value was 0.0257.
In the case of GGCCGAGA, the “PBM E-score” value is reported as -0.00676.
In the case of TGCTGGAA, the “PBM E-score” value is reported as 0.0991.
In the case of ACCTTGCC, the “PBM E-score” value is reported as -0.0201.
For ACGCCAAC, the “PBM E-score” value was 0.137.
In the case of GGCGTTGA, the “PBM E-score” value is reported as 0.0502.
With CAACACAG the “PBM E-score” value was 0.0389.
With GTTACTGA the “PBM E-score” value was 0.151.
CGGTTGAG was tested, and the “PBM E-score” value was 0.0903.
For GAGTCGCC, the “PBM E-score” value was -0.199.
ACTATTCC was tested, and the “PBM E-score” value was -0.00938.
In the case of ATGTGCGG, the “PBM E-score” value is reported as 0.113.
For GGTACTGA, the “PBM E-score” value was -0.0525.
In the case of CGATTTAG, the “PBM E-score” value is reported as 0.167.
With GGCACTAC the “PBM E-score” value was -0.0488.
AAGTCGGT was tested, and the “PBM E-score” value was -0.171.
In the case of GCGCTAAA, the “PBM E-score” value is reported as 0.125.
In the case of GTTCGTTA, the “PBM E-score” value is reported as 0.133.
With ATAGTGAA the “PBM E-score” value was -0.00864.
CGGACAAC was tested, and the “PBM E-score” value was 0.0404.
In the case of CCCGAGCA, the “PBM E-score” value is reported as -0.224.
In the case of GAGTACAA, the “PBM E-score” value is reported as 0.0583.
With GACATGGC the “PBM E-score” value was -0.133.
With CATACCCG the “PBM E-score” value was 0.0134.
GGAATCAA was tested, and the “PBM E-score” value was -0.0386.
For ACACGCCC, the “PBM E-score” value was -0.261.
In the case of CCAAGTGC, the “PBM E-score” value is reported as -0.205.
With GACCCGGA the “PBM E-score” value was -0.271.
For TCCCAAGA, the “PBM E-score” value was -0.00618.
With GTAATGCA the “PBM E-score” value was 0.171.
With GACCGGCA the “PBM E-score” value was -0.202.
For GTGATGAA, the “PBM E-score” value was 0.154.
ACCTACAC was tested, and the “PBM E-score” value was -0.169.
CCAGAGTC was tested, and the “PBM E-score” value was -0.12.
For GTAACGCA, the “PBM E-score” value was 0.189.
For ATTCAGTA, the “PBM E-score” value was 0.164.
In the case of ACACGGGT, the “PBM E-score” value is reported as -0.0314.
In the case of ATGTCTTA, the “PBM E-score” value is reported as 0.133.
CCAGCTAA was tested, and the “PBM E-score” value was -0.157.
In the case of CGAACGGA, the “PBM E-score” value is reported as 0.043.
With CACATGAC the “PBM E-score” value was 0.254.
For AATAATGT, the “PBM E-score” value was 0.181.
In the case of AAAAGCTG, the “PBM E-score” value is reported as -0.0375.
ACAAACAT was tested, and the “PBM E-score” value was 0.146.
AAACCTGT was tested, and the “PBM E-score” value was 0.0282.
In the case of ACTAGCAT, the “PBM E-score” value is reported as -0.168.
With ACATATTC the “PBM E-score” value was 0.231.
CAGACGGA was tested, and the “PBM E-score” value was -0.0552.
In the case of CGCATACC, the “PBM E-score” value is reported as 0.117.
With AAGGCATG the “PBM E-score” value was 0.0974.
AGGCGTAA was tested, and the “PBM E-score” value was 0.095.
CCTTCTCC was tested, and the “PBM E-score” value was -0.341.
In the case of CCAACGTC, the “PBM E-score” value is reported as -0.022.
CTCAATTA was tested, and the “PBM E-score” value was 0.109.
With CGACACGA the “PBM E-score” value was 0.0473.
In the case of AACGAAGC, the “PBM E-score” value is reported as 0.0542.
With ACCTGCAT the “PBM E-score” value was -0.0443.
With CTAATAAG the “PBM E-score” value was 0.00507.
For ATCCTCAT, the “PBM E-score” value was -0.0203.
AGGCAGTC was tested, and the “PBM E-score” value was -0.0638.
With GGTCCGCA the “PBM E-score” value was -0.0844.
In the case of AAGGATTA, the “PBM E-score” value is reported as -0.0508.
With GTACATTA the “PBM E-score” value was 0.201.
In the case of AGGTTGAC, the “PBM E-score” value is reported as 0.0459.
AACTTGCG was tested, and the “PBM E-score” value was 0.0436.
For ATCAGACA, the “PBM E-score” value was -0.00162.
For CTAGTTAC, the “PBM E-score” value was 0.0299.
With AGCAACCG the “PBM E-score” value was -0.174.
With CATCAGGG the “PBM E-score” value was -0.0573.
